# From patent US9340533B2, “1,4-benzothiazepine-1-oxide derivative and pharmaceutical composition utilizing the same” (priority 2009, dated 2016)
# System: right atrium of the guinea pig
# Test: tissue or blood
# Settings: Cavia porcellus, read-out: 50% inhibition (IC50) of right atrium contraction rate per minute
row,Compound,IC50 [µM]
1,"COc1ccc2c(c1)CN(C(=O)CCN1CCC(Cc3ccccc3)CC1)CC[S+]2[O-] (centres unmarked) [compound [III], 4-[3-(4-benzylpiperidin-1-yl)propionyl]-7-methoxy-2,3,4,5-tetrahydro-1,4-benzothiazepine-1-oxide]",35
2,"COc1ccc2c(c1)CN(C(=O)CCN1CCC(Cc3ccc(O)cc3)CC1)CC[S+]2[O-] (centres unmarked) [compound [IV], 4-{3-[4-(4-hydroxybenzyl)piperadin-1-yl]propionyl}-7-methoxy-2,3,4,5-tetrahydro-1,4-benzothiazepine-1-oxide]",110
